Positions count from the first letter of the chain named. The list shows a part of the results.
T1: RBFOX1 RRM (Homo sapiens, UniProt Q9NWB1 109-208)
T1 sequence: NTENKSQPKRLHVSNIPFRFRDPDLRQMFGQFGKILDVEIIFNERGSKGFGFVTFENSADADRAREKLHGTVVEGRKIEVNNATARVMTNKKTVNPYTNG

B1: UACCCGA (DNA:RNA)
RNA: GGGAGACCGGAAUUCAGAUUGUCCUACCCGAUUAAAUCCCGUCGUAGCCACCA
DNA 1: CAATCTGAATTCCGGTCTCCC
DNA 2: TGGTGGCTACGACGGGATT
B2: UAACUUG (DNA:RNA)
RNA: B1 RNA with C27A, C29U, G30U, A31G
DNA 1: CAATCTGAATTCCGGTCTCCC
DNA 2: TGGTGGCTACGACGGGATT
B3: GAGCCUU (DNA:RNA)
RNA: B1 RNA with U25G, C27G, G30U, A31U
DNA 1: CAATCTGAATTCCGGTCTCCC
DNA 2: TGGTGGCTACGACGGGATT
B4: UGGCCUA (DNA:RNA)
RNA: B1 RNA with A26G, C27G, G30U
DNA 1: CAATCTGAATTCCGGTCTCCC
DNA 2: TGGTGGCTACGACGGGATT
B5: UGCAGCC (DNA:RNA)
RNA: B1 RNA with A26G, C28A, C29G, G30C, A31C
DNA 1: CAATCTGAATTCCGGTCTCCC
DNA 2: TGGTGGCTACGACGGGATT
B6: UGGCUCU (DNA:RNA)
RNA: B1 RNA with A26G, C27G, C29U, G30C, A31U
DNA 1: CAATCTGAATTCCGGTCTCCC
DNA 2: TGGTGGCTACGACGGGATT
B7: AACGUUU (DNA:RNA)
RNA: B1 RNA with U25A, C28G, C29U, G30U, A31U
DNA 1: CAATCTGAATTCCGGTCTCCC
DNA 2: TGGTGGCTACGACGGGATT
B8: AUGGAAG (DNA:RNA)
RNA: GGGAGACCGGAAUUCAGAUUGUCCAUGGAAGUUAAAUCCCGUCGUAGCCACCA
DNA 1: CAATCTGAATTCCGGTCTCCC
DNA 2: TGGTGGCTACGACGGGATT
B9: UAUAGCG (DNA:RNA)
RNA: B1 RNA with C27U, C28A, C29G, G30C, A31G
DNA 1: CAATCTGAATTCCGGTCTCCC
DNA 2: TGGTGGCTACGACGGGATT

The binders below were run against T1, RBFOX1 RRM (assay: EMSA; HiTS-Eq, 1 nM pool, 10 min; buffer printed only for the single-RNA assays: 10 mM Tris pH 7.5, 150 mM NaCl, 3.4 mM EDTA, 0.001% NP-40, 30 C). Conditions: tags: His6 N-terminal (pET28a); label: 5' 32P.
Summary of the method: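 Purified RbFox RRM, wild type or mutant, was incubated for 10 min in 50 µL with 1 nM of a 5′-radiolabelled RNA pool carrying 7 randomized nucleotides, whose flanks were annealed to DNA oligonucleotides, over a series of increasing protein concentrations. Unbound RNA was resolved on 8% native PAGE, cut out, reverse-transcribed, barcoded by PCR and sequenced on an Illumina HiSeq 2500. Relative association constants were derived from changes in read counts for each RNA species versus the control reaction and normalised to the cognate motif.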

Row | Binder | binding signal
1 | B1 | 0.00537 KA relative to UGCAUGU
2 | B2 | 0.0139 KA relative to UGCAUGU
3 | B3 | 0.0118 KA relative to UGCAUGU
4 | B4 | 0.0142 KA relative to UGCAUGU
5 | B5 | 0.0108 KA relative to UGCAUGU
6 | B6 | 0.0197 KA relative to UGCAUGU
7 | B7 | 0.00505 KA relative to UGCAUGU
8 | B8 | 0.00901 KA relative to UGCAUGU
9 | B9 | 0.0121 KA relative to UGCAUGU
